Assay results published in PMC4336329 (PLoS ONE, 2015).
About 2,200 (0.71%) of roughly 310,000 compounds showed an effect of 50% or more. Effects have a minus sign here. This is one part of the list.

What follows are molecules tested against human ether-à-go-go-related gene (hERG) potassium channel (human, UniProt Q12809) (assay: primary screen, population patch clamp on CHO cells stably expressing hERG).
Sequence of human ether-à-go-go-related gene (hERG) potassium channel (Q12809 whole entry, looked up): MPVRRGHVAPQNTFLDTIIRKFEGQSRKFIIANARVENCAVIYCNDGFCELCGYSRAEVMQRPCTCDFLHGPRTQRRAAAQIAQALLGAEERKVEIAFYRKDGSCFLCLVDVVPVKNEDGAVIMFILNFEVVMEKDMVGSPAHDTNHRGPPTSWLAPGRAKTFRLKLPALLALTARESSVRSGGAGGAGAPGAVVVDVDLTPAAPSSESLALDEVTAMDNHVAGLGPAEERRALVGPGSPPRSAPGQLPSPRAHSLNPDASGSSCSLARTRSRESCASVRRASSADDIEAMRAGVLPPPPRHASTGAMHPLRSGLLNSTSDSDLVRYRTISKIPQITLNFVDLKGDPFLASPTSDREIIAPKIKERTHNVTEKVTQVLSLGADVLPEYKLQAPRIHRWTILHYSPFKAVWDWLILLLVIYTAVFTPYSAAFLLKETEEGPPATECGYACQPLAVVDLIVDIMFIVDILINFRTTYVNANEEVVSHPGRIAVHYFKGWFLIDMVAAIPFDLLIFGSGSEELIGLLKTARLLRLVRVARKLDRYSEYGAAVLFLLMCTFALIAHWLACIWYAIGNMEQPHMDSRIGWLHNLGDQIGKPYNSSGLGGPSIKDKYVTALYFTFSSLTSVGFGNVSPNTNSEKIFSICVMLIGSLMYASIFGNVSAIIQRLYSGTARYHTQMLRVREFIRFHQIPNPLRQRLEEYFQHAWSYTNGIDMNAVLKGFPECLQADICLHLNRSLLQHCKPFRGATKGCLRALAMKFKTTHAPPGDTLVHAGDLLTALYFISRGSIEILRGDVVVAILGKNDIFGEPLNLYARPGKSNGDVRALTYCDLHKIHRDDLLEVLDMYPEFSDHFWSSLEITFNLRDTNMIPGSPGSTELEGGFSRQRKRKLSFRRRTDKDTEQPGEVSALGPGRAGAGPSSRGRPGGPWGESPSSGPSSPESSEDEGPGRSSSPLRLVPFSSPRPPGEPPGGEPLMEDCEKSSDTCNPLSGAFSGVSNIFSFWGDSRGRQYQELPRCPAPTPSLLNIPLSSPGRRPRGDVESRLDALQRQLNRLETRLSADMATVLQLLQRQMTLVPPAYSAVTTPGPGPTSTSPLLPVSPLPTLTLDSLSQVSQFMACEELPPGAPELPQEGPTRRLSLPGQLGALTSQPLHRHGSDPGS

Structure (SMILES) | hERG current change (%, negative = inhibition) at 1uM [%]
O=C(Nc1ccccc1)N1CCCN(c2ccc(C(F)(F)F)cc2[N+](=O)[O-])CC1 | -1.68
O=C(c1sc2cccc(Cl)c2c1Cl)N1CCN(CCc2ccccn2)CC1 | 0.613
Cn1c(SCC(=O)NCc2ccc3c(c2)OCO3)ncc(C(=O)Nc2ccc(F)cc2)c1=O | -0.579
Cc1ccc(OP(=O)(NC(C)c2ccccc2)Oc2ccc(C)cc2)cc1 (stereo not shown) | 15.5
O=C(NCCCNC(=O)c1ccco1)c1ccc(Cl)c(Cl)c1 | 5.08
CCCS(=O)(=O)N1CCCC(C(=O)NCCN2CCC(Cc3ccccc3)CC2)C1 (stereo not shown) | -31
Cc1n[nH]c(=O)c2c(NC(=O)COC(=O)COc3cccc(Br)c3)oc(C)c12 | -6.05
COc1cc(OC)cc(C(=O)NCC(=O)NC(C)c2ccccc2)c1 (stereo not shown) | 13.1
COC(=O)C(C)NC(=O)COc1ccc2ccccc2c1 (stereo not shown) | 4.14
Cn1cnc(S(=O)(=O)Nc2ccc(C(F)(F)F)cc2)c1 | 1.15
COc1cc(C)c(C(=O)CSc2nnc(CNC(=O)c3ccco3)n2C)cc1C | 8.28
CCN(Cc1ccccc1)C(=S)Nc1cc(C(=O)OC)ccc1C(=O)OC | 10.2
COc1cc(C(=O)NCCOc2cc(C)cc(C)c2)c(Br)c(OC)c1OC | -0.854
O=C1Nc2ccccc2/C1=C/c1cccnc1 | 12.5
CS(=O)(=O)O.Cc1cccc2c1Sc1ccc(Cl)cc1CC2N1CCNCC1.O (stereo not shown) | 16.4
COc1cc(C)c2occ(/C(C)=N\O)c2c1 | -3.29
COc1ccc(CC2(CO)CCN(C(=O)NCc3ccccc3)CC2)cc1 | 10.4
CCCOc1ccc(N2CC(C(=O)Nc3ccccc3C(=O)NCc3ccco3)CC2=O)cc1 (stereo not shown) | -29.5
Cc1cc(C)nc(NC(=O)c2ccc3c(c2)OCO3)c1 | 20.6
O=C(CCCCCN1C(=O)[C@@H]2Cc3ccccc3CN2C1=O)Nc1cccc(F)c1 | -24.6
Cc1nn(Cc2ccc(Cl)cc2)c(C)c1NC(=O)c1ccc([N+](=O)[O-])cc1 | -34.7
COc1cccc(OC)c1C(=O)Nc1ccc(C(=O)NCc2ccccc2)cc1 | 4.61
COc1ccc(C(=O)Nc2ccc3c(c2)n(C)c(=O)n3C)cc1OC | 15.9
CC(C)NC(=O)C1CCN(C(=O)N(C)C)CC1 | 0.481
C[C@@]12CCC3[C@@](CCC4[C@@]3(C)CCC[C@@]4(C)C(=O)NCc3ccccc3)(CC1=O)C2 (stereo partly shown) | 0.578
Clc1ccc(-c2nnc(SCc3nc(-c4ccccc4)no3)o2)cc1 | 9.75
O=C(COC(=O)CCCNC(=O)c1ccc(Cl)cc1)Nc1cc(Cl)ccc1Cl | 19.7
CCOC(=O)N1CCN(C(=O)CCCN2C(=O)CSc3nc(C)cc(C)c32)CC1 | 9.76

Structure (SMILES) | hERG current change (%, negative = inhibition) at 1uM [%]
Cc1csc2ncnc(NCCc3ccccn3)c12 | 1.77
COc1cccc(CNS(=O)(=O)c2cc3c(cc2Cl)NC(=O)CO3)c1 | -3.15
O=C(CN1C(=O)c2cccnc2Oc2ccc(Cl)cc21)NC1CCCC1 | 8.97
O=C(CSCc1c(Cl)cccc1Cl)Nc1ccc2c(c1)OCO2 | 8.38
CC(OC(=O)c1ccc(Cl)c(S(N)(=O)=O)c1)C(=O)NCC1CCCCC1 (stereo not shown) | 11.9
CCOc1ccc2ccccc2c1CNCCN1CCOCC1.Cl | -5.74
COC(=O)c1[nH]c2cccc(OC)c2c1NC(=O)CN1CCOCC1 | 4.75
CCOC(=O)c1sc(NC(=O)CSc2nnc(-c3ccco3)o2)c(C(=O)OCC)c1C | 6.1
CCCCn1c(N)c(N(CCOC)C(=O)c2cccc(S(=O)(=O)N(C)c3ccc(C)cc3)c2)c(=O)[nH]c1=O | 1.27
CNC(=O)c1c(NC(=O)c2ccc(S(=O)(=O)N3CCCCC3C)cc2)sc2c1CCN(C)C2 (stereo not shown) | 9.52
CCCCN(CC)CCCNC(=O)CC1Oc2ccccc2NC1=O (stereo not shown) | -7.18
O=C(CC1C(=O)NCCN1C(=S)Nc1ccccc1)Nc1ccc(F)cc1 (stereo not shown) | -4.3
Cl.O=C(COc1ccc(Br)cc1CNCCc1ccccc1)NCc1ccccc1 | -11.5
O=C(COc1ccccc1)Nc1ncc2c(n1)CCCC2=O | 10.8
CS(=O)(=O)C1=NSC2=NC(=O)/C(=C\c3ccc(OC(=O)c4ccco4)c(Br)c3)C(=N)N21 | 12.2
CC(=O)N1CCOc2ccc(S(=O)(=O)N3C(C)CCCC3C)cc21 (stereo not shown) | 11
Cc1cc(-c2csc(NC(=O)c3ccc(C#N)cc3)n2)c(C)n1Cc1ccccc1 | 11.6
CCOC(=O)C(=O)N(CC)C1CCS(=O)(=O)C1 (stereo not shown) | 8.82
Cc1c2cnn(-c3ccccc3)c(=O)c2c(C)n1CCCC(=O)NCCN1CCN(C)CC1 | 9.84
CCSc1ccc(NC(=O)c2cccnc2)cc1 | 5.83
CCN(CC(=O)Nc1c(F)cccc1F)C(=O)CNC(=O)c1cccs1 | 10.9
CN1CCN(C(=O)NC2CCCN2S(=O)(=O)c2ccc(Cl)cc2)CC1 (stereo not shown) | 5.18
CN1c2ccc([N+](=O)[O-])cc2CC2(C(=O)NC(=O)N(c3ccccc3)C2=O)C1c1ccccc1 (stereo not shown) | 23.8
CN(Cc1cccs1)c1ncnc2sccc12 | 4.33
CCCNC(=O)N1c2ccccc2Sc2ccccc21 | 16.8
CCCS(=O)(=O)c1csc(C(=O)OC)c1N | 10.1
CN(CC(=O)Nc1cccc(F)c1)C(=O)c1ccc(N2CCCC2)c([N+](=O)[O-])c1 | -8.06
